Reference: PubChem BioAssay AID1476 (National Center for Advancing Translational Sciences (NCATS), 2009)
Out of some 200,000 compounds screened, about 4,500 (2.2%) were called active. This list was built around the results that the source calls inconclusive (neither active nor inactive); the mix of calls is not that of the screen. The call rests on the fitted dose curve; in most records, active means well fitted inhibition curve with a large enough effect; inconclusive means small, poorly fitted or top-dose-only effect, or effect the other way; inactive means flat fitted curve, though single readings scatter. A potency beside an inconclusive call is a rough fit, not a confirmed value.

These molecules were tested against Cruzipain (Trypanosoma cruzi) (UniProt P25779) (assay: qHTS Assay for Promiscuous and Specific Inhibitors of Cruzain (without detergent)). Conditions: purified cruzain, Z-FR-AMC fluorescence, no detergent.
Outline: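 Detergent-free condition (0.00005% Triton X-100) in acetate buffer pH 5.5 with DTT. 1.5 nM enzyme and compound were pre-mixed 15 min, then 2 uM Z-FR-AMC substrate added; reaction progress from fluorescence change between first and third reads (60 s).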
Further: nearly all actives have a fitted effect of over 40% in size.
Potency means the concentration at half of the fitted maximal effect; tags describe the fitted curve by direction and shape.
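Wherever max response, negative = inhibition is given: plate controls were enzyme without inhibitor for no effect and buffer without enzyme for full effect.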

UniProt P25779, sequence (P25779 whole entry, looked up): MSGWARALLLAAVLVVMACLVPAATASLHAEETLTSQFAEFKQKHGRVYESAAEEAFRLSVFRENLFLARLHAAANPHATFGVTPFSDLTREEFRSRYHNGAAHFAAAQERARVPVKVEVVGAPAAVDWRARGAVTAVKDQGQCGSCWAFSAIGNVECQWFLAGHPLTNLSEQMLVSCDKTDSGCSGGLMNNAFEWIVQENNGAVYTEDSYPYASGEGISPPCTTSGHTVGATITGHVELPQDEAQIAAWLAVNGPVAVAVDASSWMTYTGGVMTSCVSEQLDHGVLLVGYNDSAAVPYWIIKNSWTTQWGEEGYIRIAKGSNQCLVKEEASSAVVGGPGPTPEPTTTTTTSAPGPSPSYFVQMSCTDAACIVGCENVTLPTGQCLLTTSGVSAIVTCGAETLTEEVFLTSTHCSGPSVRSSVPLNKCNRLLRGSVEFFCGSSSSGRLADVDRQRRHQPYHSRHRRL

SMILES | Potency | max response, negative = inhibition
COCCn1c(=NC(=O)c2ccc(S(=O)(=O)N3CCc4ccccc4C3)cc2)sc2cc(S(N)(=O)=O)ccc21 | inconclusive: 15.8 µM [activator, partial curve] | –
CCCCSc1nc(C)cc(NC(=S)Nc2ccc(OC)cc2)n1 | inconclusive: 39.8 µM [inhibitor, single point] | –
CCc1nn(Cc2cccc(F)c2)c(=O)c2cc3cc(C)ccc3n12 | – | inactive: -9.02%
O=C(O)c1ccccc1NCn1c(=S)sc2ccccc21 | – | inactive: 4.34%
Cc1ccc(CSc2ccc3nnc(CCNS(=O)(=O)c4ccc(C)cc4)n3n2)cc1 | inconclusive: 31.6 µM [activator, single point] | –
COc1cc(-c2nc(Cc3ccccc3Cl)no2)cc(OC)c1OC | inconclusive: 39.8 µM [activator, single point] | –
CCOC(=O)c1cc(-c2ccccc2)n(-c2cccc(C(=O)Nc3cccc(C)c3)c2)c1C | inconclusive: 5.01 µM [inhibitor, full curve, poor fit] | –
Cc1ccc(S(=O)(=O)N2CCN(C3CC(=O)N(Cc4ccccc4)C3=O)CC2)cc1C (stereo not given) | inconclusive: 39.8 µM [activator, single point] | –
O=C(c1ccccc1Cl)N1N=C(c2ccc(Br)cc2)CC1c1nc2ccccc2[nH]1 (stereo not given) | inconclusive: 39.8 µM [inhibitor, single point] | –
CNC(=S)N/N=C/c1cn(Cc2c(F)cccc2Cl)c2ccccc12 | active: 31.6 µM | –
O=C(CSc1nnc(Cc2csc(Nc3cccc(Cl)c3)n2)o1)N1CCc2ccccc21 | inconclusive: 31.6 µM [inhibitor, single point] | –
COc1ccc(Nc2nnc(SCC(=O)/C=C3/N(C)c4ccccc4C3(C)C)s2)cc1 | inconclusive: 31.6 µM [inhibitor, single point] | –
Cn1c(=O)c2c(n(Cc3ccccc3)c1=O)NC(=O)C2CC(=O)NCc1cccc(Cl)c1 (stereo not given) | – | inactive: -6.99%
O=C(/C=C/c1ccccc1)c1ccc(NC2=NCCCS2)cc1 | inconclusive: 20 µM [inhibitor, single point] | –
Cc1ccc(OCc2nc(-c3ccc(C(=O)N4CCN(c5cc(Cl)ccc5C)CC4)cc3)oc2C)cc1 | – | inactive: 0.461%
CC(C)n1c(SCC(=O)Nc2ccccc2N2CCCCC2)nc2c1c(=O)n(C)c(=O)n2C | inconclusive: 39.8 µM [activator, single point] | –
O=C(/C=C/c1cccc([N+](=O)[O-])c1)NC(=S)Nc1cccc(NC(=O)c2ccccc2Cl)c1 | active: 6.31 µM | –
CCC(=O)O[C@@]1(C(=O)CCl)C(C)CC2C3CCC4=CC(=O)C=C[C@@]4(C)[C@]3(F)C(O)C[C@]21C (stereo not given in full) | inconclusive: 39.8 µM [activator, single point] | –
C[C@@H]1CCCC(CC(=O)O)(CC(=O)O)C1 | – | inactive: 12.7%
O=C(Cn1ccn(-c2ccc(F)c(F)c2)c(=O)c1=O)c1ccc(F)cc1 | – | inactive: 4.67%
CC(C)c1nn2c(=O)cc(COC(=O)CNC(=O)c3ccccc3Cl)nc2s1 | inconclusive: 20 µM [inhibitor, single point] | –
N#CCSc1nnc(COc2cccc3ccccc23)n1-c1cccc(Cl)c1 | inconclusive: 25.1 µM [activator, single point] | –

SMILES | Potency | max response, negative = inhibition
Cc1sc2nc(SCC(=O)c3cc(C)n(CC4CCCO4)c3C)n(C(C)C)c(=O)c2c1C (stereo not given) | inconclusive: 5.01 µM [activator, full curve] | –
COc1ccc(C2CC(=O)c3c(C)nc(N4CCN(C=O)CC4)nc3C2)c(OC)c1 (stereo not given) | inconclusive: 31.6 µM [activator, single point] | –
CCOC(=O)CSc1nc2ccccc2c(=O)n1CCc1ccc(OC)c(OC)c1 | – | inactive: 0.103%
CCC1CN(C(=O)N2CCC(C(=O)NCCN(CC)CC)CC2)c2ccccc2O1 (stereo not given) | inconclusive: 25.1 µM [inhibitor, single point] | –
O=C(Nc1ccc(Cl)cc1C(=O)Nc1ccc(Br)cn1)c1ccco1 | inconclusive: 31.6 µM [inhibitor, single point] | –
COc1ccc(-c2noc(-c3cccnc3NCc3ccco3)n2)cc1 | – | inactive: 20.1%
COc1ccc(Cl)cc1NC(=O)CN(C)S(=O)(=O)c1ccc2c(c1)CCCN2C(C)=O | inconclusive: 39.8 µM [activator, single point] | –
CCOC(=O)c1ccc(N2CCN(c3cccc(Cl)c3)CC2)c(NC(=O)Nc2ccc(OC)cc2OC)c1 | – | inactive: -8.57%
O=c1cc(CN2CC=C(c3ccccc3)CC2)c2c(ccc3ccccc32)o1 | inconclusive: 31.6 µM [inhibitor, single point] | –
Cc1cc(-n2c(SCC(=O)NCc3cccs3)nc3n[nH]c(C)c3c2=N)ccc1Cl | inconclusive: 25.1 µM [activator, single point] | –
CS[C@@H](CC(=O)O)C(=O)O | – | inactive: 4.3%
O=C(Nc1nnc(-c2ccco2)s1)c1ccccc1 | inconclusive: 39.8 µM [inhibitor, single point] | –
Cc1ccc(-n2c(C)cc(C(=O)OCC(=O)N(C)C3CCS(=O)(=O)C3)c2C)cc1 (stereo not given) | inconclusive: 39.8 µM [activator, single point] | –
CCOC(=O)c1c(C)[nH]c(C)c1C(=O)COC(=O)C1CCCN1S(=O)(=O)c1ccccc1F (stereo not given) | inconclusive: 25.1 µM [activator, single point] | –
O=C(Cn1c(=O)c2cc(Cl)ccc2n2nncc12)Nc1ccccc1 | – | inactive: -1.67%
O=C(NCc1ccc(-c2nc3ccccc3s2)cc1)c1ccco1 | active: 25.1 µM | –
Cc1ccc2cc(CN(Cc3cccs3)Cc3nnnn3CC3CCCO3)c(=O)[nH]c2c1C (stereo not given) | inconclusive: 31.6 µM [activator, single point] | –
Cc1ccc(OCC(O)CNS(=O)(=O)c2ccccc2C(=O)N2CCCCC2)cc1 (stereo not given) | inconclusive: 39.8 µM [activator, single point] | –
COc1ccc2nc(-c3ccc(N)cc3)[nH]c2c1 | active: 10 µM | –
C/C(=N\NC(=O)Cc1csc(N2CCOCC2)n1)c1ccccc1 | – | inactive: 10%
CCC12C(=O)C(CC)(C(c3ccccc3)=C1c1ccccc1)[C@@H]1C(=O)N(c3ccc(C)cc3)C(=O)C12 (stereo not given in full) | inconclusive: 31.6 µM [inhibitor, single point] | –
OC(CNCCC1C=Nc2ccccc21)Cn1c2ccc(Cl)cc2c2cc(Cl)ccc21 (stereo not given) | active: 6.31 µM | –

SMILES | Potency | max response, negative = inhibition
COc1ccc(Nc2nc(Cl)nc(NCc3ccco3)n2)cc1 | inconclusive: 39.8 µM [inhibitor, single point] | –
Cc1ccc(C)c(NC(=O)CCn2nc(C)c3c(C)n(-c4ccccc4)nc3c2=O)c1 | – | inactive: 10.7%
C[C@@H](C(=O)Nc1ccc2ccccc2c1)[C@H]1C[C@]1(C)[C@H](NC(=O)OCc1ccccc1)c1ccccc1 | inconclusive: 39.8 µM [inhibitor, single point] | –
Cc1ccc2cc(/C=C3\N=C(c4ccccc4)OC3=O)c(N3CCOCC3)nc2c1 | inconclusive: 31.6 µM [activator, single point] | –
COc1ccc(NC(=O)Cn2c(=O)n(Cc3nc(C)no3)c(=O)c3cc4c(cc32)OCO4)cc1OC | inconclusive: 25.1 µM [activator, single point] | –
N#CCCSC(=S)[C@H]1CCCC1=N | – | inactive: -2.47%
CC1=CC(C)(C)N2C(=O)C3(C(C#N)=C(N)OC4=C3C(=O)CC(C)(C)C4)c3cccc1c32 (stereo not given) | inconclusive: 39.8 µM [activator, single point] | –
Cc1cc(C(=O)COC(=O)c2ccc(O)cc2)c(C)n1CC1COc2ccccc2O1 (stereo not given) | active: 25.1 µM | –
CCN1C(=O)C2(C(C#N)=C(N)Oc3n[nH]c(COC)c32)c2ccccc21 (stereo not given) | – | inactive: 5.18%
Cc1nn(-c2ccccc2)c2sc(C(=O)OCc3nnc(-c4ccccc4)o3)cc12 | inconclusive: 39.8 µM [inhibitor, single point] | –
COCCOC(=O)c1c(N)n(Cc2ccco2)c2nc3ccccc3nc12 | – | inactive: -0.483%
Cc1cc2c3c(c1)C(C)(c1ccccc1)CC(C)(C)N3C(=O)C21C(C#N)=C(N)OC2=C1C(=O)CC(C)(C)C2 (stereo not given) | inconclusive: 25.1 µM [activator, partial curve] | –
CC(C)(C)c1ccc(/C=N/NC(=S)NCc2ccccc2)cc1 | inconclusive: 39.8 µM [inhibitor, single point] | –
CCn1cc(S(=O)(=O)CC(=O)Nc2ccc3c(c2)OCCO3)c2ccccc21 | – | inactive: -3.15%
O=C(NCc1ccc(Cl)cc1)C1CCCN(C(=O)c2cnn(-c3ccc(F)cc3)c2-n2cccc2)C1 (stereo not given) | inconclusive: 31.6 µM [activator, single point] | –
O=C1N=C(c2ccccc2)S/C1=C\c1cccs1 | active: 20 µM | –
Cc1c(NC(=O)c2ccc(Cl)cc2)cc(C(C)C)c(O)c1S(=O)(=O)c1ccc(Cl)cc1 | active: 31.6 µM | –
CN(C)S(=O)(=O)c1ccc(S(=O)(=O)Nc2ccc3c(c2)oc2ccccc23)cc1 | inconclusive: 31.6 µM [inhibitor, single point] | –
Cc1ccc(-c2nnc(-c3ccccc3S(=O)(=O)Cc3ccc(Cl)cc3)o2)cc1 | inconclusive: 31.6 µM [inhibitor, single point] | –
Cc1cc(C)nc(Nc2n[nH]c(COc3ccc4ccccc4c3)n2)n1 | inconclusive: 20 µM [activator, single point] | –
CCN(CC)S(=O)(=O)c1cc(-c2nnc(Nc3ccc(OC)c(C(N)=O)c3)c3ccccc23)ccc1C | inconclusive: 39.8 µM [activator, single point] | –
